# In publication PMC4336329 (PLoS ONE, 2015):
# In all, about 310,000 compounds went through this assay and about 2,200 (0.71%) showed an effect of 50% or more. Effects have a minus sign here. The list shows a part of the results.
# Biological target: human ether-à-go-go-related gene (hERG) potassium channel (human, UniProt Q12809)
# Assay: primary screen, population patch clamp on CHO cells stably expressing hERG
# Sequence of human ether-à-go-go-related gene (hERG) potassium channel (Q12809 whole entry, looked up): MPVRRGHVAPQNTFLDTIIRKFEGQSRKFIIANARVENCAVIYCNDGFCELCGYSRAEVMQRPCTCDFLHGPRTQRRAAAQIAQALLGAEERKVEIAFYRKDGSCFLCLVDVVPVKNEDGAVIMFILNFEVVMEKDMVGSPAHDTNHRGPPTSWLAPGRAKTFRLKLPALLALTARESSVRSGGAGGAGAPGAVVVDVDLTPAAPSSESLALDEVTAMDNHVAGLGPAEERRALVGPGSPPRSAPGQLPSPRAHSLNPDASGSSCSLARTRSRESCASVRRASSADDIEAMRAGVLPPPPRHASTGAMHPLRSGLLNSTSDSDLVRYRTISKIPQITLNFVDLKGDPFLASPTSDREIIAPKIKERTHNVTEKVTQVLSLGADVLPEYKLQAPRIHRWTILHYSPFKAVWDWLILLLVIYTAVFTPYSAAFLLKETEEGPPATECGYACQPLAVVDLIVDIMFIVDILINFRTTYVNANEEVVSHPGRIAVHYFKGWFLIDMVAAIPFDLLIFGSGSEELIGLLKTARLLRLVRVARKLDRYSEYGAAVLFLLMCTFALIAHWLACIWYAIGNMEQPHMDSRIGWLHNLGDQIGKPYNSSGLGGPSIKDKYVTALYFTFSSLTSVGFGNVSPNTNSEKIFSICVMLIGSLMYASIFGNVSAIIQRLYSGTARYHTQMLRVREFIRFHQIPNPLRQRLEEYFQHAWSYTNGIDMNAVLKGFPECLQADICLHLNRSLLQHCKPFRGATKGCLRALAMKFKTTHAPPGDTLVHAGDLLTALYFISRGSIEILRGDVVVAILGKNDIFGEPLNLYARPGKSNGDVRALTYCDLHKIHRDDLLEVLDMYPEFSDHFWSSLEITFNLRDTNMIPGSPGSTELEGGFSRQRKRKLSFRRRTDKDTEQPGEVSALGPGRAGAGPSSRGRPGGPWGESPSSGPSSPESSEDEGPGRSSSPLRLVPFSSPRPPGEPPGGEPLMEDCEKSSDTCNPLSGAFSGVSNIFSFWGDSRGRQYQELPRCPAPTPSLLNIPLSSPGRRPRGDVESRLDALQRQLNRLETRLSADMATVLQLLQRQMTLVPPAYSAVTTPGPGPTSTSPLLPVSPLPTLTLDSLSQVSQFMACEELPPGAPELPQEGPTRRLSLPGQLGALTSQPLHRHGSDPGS
row,Compound,"hERG current change (%, negative = inhibition) at 1uM [%]"
1,Cc1ccc(C)c(NC(=O)c2ccc3nccnc3c2)c1,9.95
2,COc1ccc(C2N(c3cc(C)on3)C(=O)C3CCCN32)cc1OC (centres unmarked),12.5
3,Cn1c(=O)c2c(O)c(C=NCc3ccccc3)c(=O)n(C)c2n(C)c1=O,14.7
4,CCOc1ccc(CCNC(=O)CSC(=S)N2CCCC2)cc1OCC,12
5,CCN(Cc1ccccc1)C(=O)CC(=O)N(CC)Cc1ccccc1,13
6,Cn1cc(CCC(=O)N2CCCC(N3CCN(c4ccccc4F)CC3)C2)cn1 (centres unmarked),5.47
7,Cc1ccc(CNc2oc(-c3cccs3)nc2C#N)cc1,5.6
8,CC1CCc2c(sc(NC(=S)NC(=O)c3ccccc3)c2C#N)C1 (centres unmarked),13
9,CCC(=O)N[C@@H]1CC(C(C)(C)NC(=O)CC)CC=C1C (some centres unmarked),12.9
10,Cc1ccc(Sc2ncccc2C(=O)NC2CCCCCC2)cc1C,5.75
11,NC(=O)CN1C(=O)C(=O)N(Cc2cccc(C(F)(F)F)c2)C1=O,10
12,O=S(=O)(c1ccc(Br)c2nsnc12)N1CCOCC1,8.84
13,O=c1ccc2cc3ccoc3cc2o1,6.94
14,CN1C(=O)c2cccc3c(N(C)C)ccc(c23)C1=O,16.8
15,O=c1c2sc3ccccc3c2[nH]c(=S)n1CCN1CCOCC1,10.1
16,CN(C)/N=C1\C(=O)N(CN2CCN(c3ccccc3)CC2)c2ccccc21,14.4
17,CCn1cc(C(=O)NCCC(C)C)c(=O)c2cc(F)c(N3CCN(C)CC3)cc21,6.61
18,S=C(Nc1ccc(Br)cc1Cl)NN1CCOCC1,8.09
19,O=C(C1CC1)N1CCc2sccc2C1c1ccc(Cl)cc1 (centres unmarked),8.67

row,Compound,"hERG current change (%, negative = inhibition) at 1uM [%]"
1,COc1cccc(NC(=O)c2ccc(-c3ccc([N+](=O)[O-])cc3)o2)c1,-3.66
2,CCOC(=O)CC(NC(=O)c1cccs1)c1ccc(OCC)cc1 (centres unmarked),5.23
3,COc1ccc(N2CCN(C(=O)CCC(=O)N3CCOc4ccc(Cl)cc43)CC2)cc1,2.63
4,COC(=O)c1c(NC(=O)COC(=O)C2CCC2)sc(C)c1C,9.43
5,Cc1cc2[nH]c(=O)c(=O)[nH]c2cc1S(=O)(=O)Nc1cccc(Cl)c1,17.9
6,Cc1ccc(C)c(S(=O)(=O)N2CCN(C(=O)CCNC(=O)c3ccc(Br)cc3)CC2)c1,12.1
7,Oc1ccc(N2CCN(c3nc(-c4cccs4)nc4ccccc34)CC2)cc1,14.9
8,CN1CCN(NC(=O)Nc2ccc(F)cc2)CC1,18.6
9,Cc1c(CCO)sc[n+]1CC(=O)OC12CC3CC(CC(C3)C1)C2.[Cl-],12.4
10,Cc1ccnc(NC(=O)C2CCN(S(=O)(=O)c3ccc4c(c3)CC(C)N4C(=O)C3CCC3)CC2)c1 (centres unmarked),15.6
11,Cc1ccc(Cl)cc1N1CCN(C(=O)c2ccc3c(c2)CCN3S(C)(=O)=O)CC1,14
12,O=C1c2ccccc2S(=O)(=O)N1Cc1cc(=O)n2ccsc2n1,7.45
13,CCOCCCNC(=O)c1cc2cc3cc(OC)ccc3nc2o1,7.34
14,COc1ccc(NC(=O)Cn2cnc3sc(C)c(S(=O)(=O)N4CCOCC4)c3c2=O)c(OC)c1,12.6
15,COc1ccc(N(C)C(=O)c2ccc(NC(=O)CCS(=O)(=O)c3cccs3)cc2)cc1,16.4
16,COc1ccccc1N(C)S(=O)(=O)c1ccc(C(=O)Nc2ccc(N3CCOCC3)cc2)cc1,8.26
17,CCc1cc2c(NC(Cc3c[nH]c4ccccc34)C(=O)O)nc(C)nc2s1 (centres unmarked),18.1
18,CCCc1nc(C)c2c(=O)[nH]c(-c3cc(S(=O)(=O)N4CCN(CC)CC4)ccc3OCC)nn12.O=C(O)CC(O)(CC(=O)O)C(=O)O,10.1
19,Cc1ccc(S(=O)(=O)N(CC2CO2)c2cc(Cl)ccc2Cl)cc1 (centres unmarked),-1.43

row,Compound,"hERG current change (%, negative = inhibition) at 1uM [%]"
1,O=c1c2ccc(Cl)cc2nc(-c2ccc([N+](=O)[O-])cc2)n1O,13
2,Cc1cc(OCC(=O)NNC(=O)c2ccncc2)cc(C)c1Cl,16.9
3,Cc1ccc(-c2csc3ncnc(Nc4ccc(C(=O)O)cc4)c23)cc1.Cl,5.36
4,CCC(=O)OC1CC(C)N(C(=O)c2ccccc2)c2ccc(C)cc21 (centres unmarked),1.47
5,CCOc1ccccc1N1CCN(C(=O)C2c3ccccc3Oc3ccccc32)CC1,3.52
6,CC1(C(=O)OCC(=O)Nc2cccc(S(=O)(=O)NC3=NCCCCC3)c2)CC1(Cl)Cl (centres unmarked),9.62
7,COc1cc(CN2CC3CC(C2)c2cccc(=O)n2C3)cc(OC)c1OC (centres unmarked),6.15
8,CCCCC1=CC2=CC(=O)C(C)(OC(=O)CC)C(=O)C2=CN1CCCOC(C)C (centres unmarked),2.73
9,O=C(Nc1cccc(S(=O)(=O)N2CCCCC2)c1)c1ccc2c(c1)OCO2,8.6
10,O=C(COc1coc(CN2CCN(c3ccc(F)cc3)CC2)cc1=O)NC1CCCC1,-16.9
11,Cc1cccc(NC(=O)c2ccc(S(=O)(=O)N3CCC(C)CC3)cc2)n1,-15
12,COc1cc(C)ccc1OCc1cc(C(=O)N2CCN(C3CCCCC3)CC2)no1,9.23
13,Cc1ccc(S(=O)(=O)/N=C2\C=C(Nc3cccc(C(=O)O)c3)C(=O)c3ccccc32)cc1,13.8
14,Cc1cc(C(=O)CSc2ccc3c(c2)OCCO3)c(C)n1C1CC1,3.4
15,O=C(/C=C/c1ccc(Cl)cc1)Nc1ccc(N2CCOCC2)cc1,1.08
16,CCOC(=O)c1cc2oc(C)cc2n1CC(=O)OC1CCCCC1,4.59
17,CSc1nc(N(C)C)c2ccccc2n1,-6.21
18,CCOc1ccc(C2C=C(c3ccccc3)Nc3ncnn32)cc1 (centres unmarked),2.83
